B1: hTβRII (G4S)5-hFc (Fc fusion)
chain: GATIPPHVQKSDVEMEAQKDEIICPSCNRTAHPLRHINNDMIVTDNNGAVKFPQLCKFCDVRFSTCDNQKSCMSNCSITSICEKPQEVCVAVWRKNDENITLETVCHDPKLPYHDFILEDAASPKCIMKEKKKPGETFFMCSCSSDECNDNIIFSEEYNTSNPDTGGGGSGGGGSGGGGSGGGGSGGG[human IgG1 Fc and a few adjoining residues not written out]
B2: hTβRII (G4S)6-hFc (Fc fusion)
chain: GATIPPHVQKSDVEMEAQKDEIICPSCNRTAHPLRHINNDMIVTDNNGAVKFPQLCKFCDVRFSTCDNQKSCMSNCSITSICEKPQEVCVAVWRKNDENITLETVCHDPKLPYHDFILEDAASPKCIMKEKKKPGETFFMCSCSSDECNDNIIFSEEYNTSNPDTGGGGSGGGGSGGGGSGGGGSGGGGSGGG[human IgG1 Fc and a few adjoining residues not written out]
B3: hTβRII (G4S)4-hFc (Fc fusion)
chain: GATIPPHVQKSDVEMEAQKDEIICPSCNRTAHPLRHINNDMIVTDNNGAVKFPQLCKFCDVRFSTCDNQKSCMSNCSITSICEKPQEVCVAVWRKNDENITLETVCHDPKLPYHDFILEDAASPKCIMKEKKKPGETFFMCSCSSDECNDNIIFSEEYNTSNPDTGGGGSGGGGSGGGGSGGG[human IgG1 Fc and a few adjoining residues not written out]
B4: hTβRII (G4S)2-hFc (Fc fusion)
chain: GATIPPHVQKSDVEMEAQKDEIICPSCNRTAHPLRHINNDMIVTDNNGAVKFPQLCKFCDVRFSTCDNQKSCMSNCSITSICEKPQEVCVAVWRKNDENITLETVCHDPKLPYHDFILEDAASPKCIMKEKKKPGETFFMCSCSSDECNDNIIFSEEYNTSNPDTGGGGSGGG[human IgG1 Fc and a few adjoining residues not written out]
B5: hTβRII extended hinge-hFc (Fc fusion)
chain: GATIPPHVQKSDVEMEAQKDEIICPSCNRTAHPLRHINNDMIVTDNNGAVKFPQLCKFCDVRFSTCDNQKSCMSNCSITSICEKPQEVCVAVWRKNDENITLETVCHDPKLPYHDFILEDAASPKCIMKEKKKPGETFFMCSCSSDECNDNIIFSEEYNTSNPDTGGG[human IgG1 Fc not written out]
B6: hTβRII-hFc (Fc fusion)
chain: GATIPPHVQKSDVEMEAQKDEIICPSCNRTAHPLRHINNDMIVTDNNGAVKFPQLCKFCDVRFSTCDNQKSCMSNCSITSICEKPQEVCVAVWRKNDENITLETVCHDPKLPYHDFILEDAASPKCIMKEKKKPGETFFMCSCSSDECNDNIIFSEEYNTSNPDTG[human IgG1 Fc and a few adjoining residues not written out]
B7: hTβRII (G4S)3-hFc (Fc fusion)
chain: GATIPPHVQKSDVEMEAQKDEIICPSCNRTAHPLRHINNDMIVTDNNGAVKFPQLCKFCDVRFSTCDNQKSCMSNCSITSICEKPQEVCVAVWRKNDENITLETVCHDPKLPYHDFILEDAASPKCIMKEKKKPGETFFMCSCSSDECNDNIIFSEEYNTSNPDTGGGGSGGGGSGGG[human IgG1 Fc and a few adjoining residues not written out]

In one assay the target is T1, Human TGFβ1 (human, UniProt P01137 partial chain). The assay is described as follows: cell-based or functional assay.
B1: the “IC50; pGL3(CAGA)12 luciferase reporter gene assay in A549 cells” value was found to be 30 pM.
On the same count and under the same terms, in the case of B2 it was 20 pM.

For another assay, the target named is T1, Human TGFβ1. The assay is described as follows: cell-based or functional assay. This is another data set of the same source.
T1 sequence (P01137 279-390 limits assumed): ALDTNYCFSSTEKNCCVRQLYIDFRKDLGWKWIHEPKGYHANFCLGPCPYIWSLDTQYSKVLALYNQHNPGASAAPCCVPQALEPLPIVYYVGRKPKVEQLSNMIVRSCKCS
Take B3: the “IC50; pGL3(CAGA)12 luciferase reporter gene assay in A549 cells” value is 70 pM.
On the same count and under the same terms, with B4 the figure was 1.12 nM; with B5, 5.67 nM.
Same read-out and setting: with B6 the figure was 7.69 nM.
Consider B7, for which the “IC50; pGL3(CAGA)12 luciferase reporter gene assay in A549 cells” value was found to be 0.22 nM.

Another assay has as its target T1, Human TGFβ1. Description: cell-based or functional assay. This is another data set of the same source.
Turning to B1, the “IC50 (read off the curve); pGL3(CAGA)12 luciferase reporter gene assay in A549 cells, TGFb1 at 640 pg/mL” value is roughly 3 ng/mL.
The same measure, in the same setting: with B2 the figure was roughly 2 ng/mL.

Source of the values: US20230398181A1 (ACCELERON PHARMA, published 2023).
